This test has as its system Plasmodium falciparum NF54 stage V gametocytes. In words: viability index relative to DMSO control (fraction); higher = less gametocyte killing. To be noted: 2.5 µM, incubation time: 72 h. The method in brief: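 Viability index is the count of red-stained particles in a well divided by the plate mean of solvent-only wells. Particles of 20–70 µm2 were counted in one imaged field per well after one to two hours with 3 µl of 2.5 µM MitoTracker Red CMXRos and 0.13% saponin. Before staining, P. falciparum NF54 stage V gametocytes in serum-free medium (0.75% gametocytemia, 1.25% hematocrit, 10 µl, 1,536-well plates) were kept with compound at 2.5 µM for 72 hr at 37°C under low oxygen.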

[1] abbreviates: library set: Broad Institute DOS.

± gives the uncertainty stated by the source. Over roughly 9,900 compounds, “viability index relative to DMSO control” has its median near 1; the lowest 2% begin near 0.85. The list shows a part of the results.

Under setting [1], `CN1C(=O)c2cc(NC(=O)C3CCOCC3)ccc2OC[C@H]2O[C@@H](CC(=O)NCc3ccccc3F)CC[C@H]21` showed a viability index of 0.949 ± 0.17.
Still for that read-out and setting: as for `O=C(C[C@H]1C[C@H]2c3cc(NS(=O)(=O)c4ccc(F)cc4)ccc3O[C@H]2[C@@H](CO)O1)N1CCc2ccccc2C1`, the figure is 1.06 ± 0.033; as for `CCC(=O)N1C[C@@H](C)[C@H](OC)CN(C)C(=O)c2ccc(NC(=O)CC(F)(F)F)cc2OC[C@H]1C`, 1.07 ± 0.021.
Same read-out and setting: as for `CCCNC(=O)N(C)C[C@H]1Oc2cc(C#C[C@H](C)O)ccc2S(=O)(=O)N([C@H](C)CO)C[C@@H]1C`, the figure is 1.0353 ± 0.00023; as for `CN(C)CC(=O)N1[C@H](C#N)[C@H](c2ccc(C#CC3CCCCC3)cc2)[C@@H]1CO`, 0.981 ± 0.11; as for `CO[C@@H]1CN(C)C(=O)c2cc(NC(=O)Nc3cccc(Cl)c3)ccc2OC[C@@H](C)N(C(=O)Nc2c(C)noc2C)C[C@@H]1C`, 1.06 ± 0.1.
Same read-out and setting: the same measure for `CN1CCN(C(=O)C[C@H]2CC[C@H]3[C@@H](COc4ccc(NC(=O)C5CCOCC5)cc4C(=O)N3C)O2)CC1`: 1.09 ± 0.038; for `Cc1ccccc1S(=O)(=O)N1C[C@H](O)COC[C@H]2O[C@@H](CC(=O)N3CCCCC3)CC[C@@H]21`: 0.994 ± 0.13.
In the case of `C[C@@H]1CN([C@H](C)CO)C(=O)c2ccccc2-c2ccccc2CO[C@H]1CN(C)C(=O)Nc1cccc(Cl)c1Cl`, under setting [1], the viability index was 0.863 ± 0.045.
Same read-out and setting: the same measure for `C[C@H](CO)N1C[C@H](C)[C@@H](CN(C)C(=O)[C@H]2CCCN2C)OCc2ccccc2-c2ccccc2C1=O`: 0.996 ± 0.084; for `O=S(=O)(NC[C@H]1[C@H](c2ccccc2)[C@@H](CO)N1CC1CC1)c1ccccc1`: 1.02 ± 0.052.
On the same count and under the same terms, the same measure for `COc1ccc2c3c([C@H](CO)N(C[C@]33CCN(CC3)C(=O)Nc3ccc(F)cc3F)C(=O)Nc3ccc(F)cc3)n(C)c2c1`: 1.04 ± 0.029.
As to `COc1ccc2c3c([C@@H](CO)NC[C@]33CCN(Cc4ccc(cc4)-c4ccccn4)CC3)n(C)c2c1`, the viability index (library set: Broad Institute Blood Stage) came to 0.946 ± 0.052.
`Cn1cnc(CCNC(=O)[C@H]2[C@H](CO)[C@H]3Cn4c(cccc4=O)[C@H]3N2C(=O)Nc2ccccc2)c1` returned a viability index under setting [1] of 1.11 ± 0.034.
Still for that read-out and setting: as for `O=C1CNC[C@@H]2[C@@H](c3ccc(-c4ccccc4F)cc3)[C@@H](CO)N12`, the figure is 1.07 ± 0.049.
Under setting [1], `C[C@H](CO)N1C[C@H](C)[C@H](CN(C)S(=O)(=O)c2ccc(Cl)cc2)Oc2ccc(NC(=O)Cn3cnnn3)cc2CC1=O` registered a viability index of 1.07 ± 0.026.
Still for that read-out and setting: as for `C[C@H]1CN([C@@H](C)CO)C(=O)c2cc(NC(=O)C3CCCCC3)ccc2O[C@@H]1CN(C)C(=O)Nc1ccc(C(F)(F)F)cc1`, the figure is 1.03 ± 0.038.
Same read-out and setting: as for `COc1ccc(S(=O)(=O)Nc2ccc3c(c2)C(=O)N([C@H](C)CO)C[C@H](C)[C@@H](CN(C)S(=O)(=O)c2ccc(Cl)cc2)OCCCC[C@@H](C)O3)cc1`, the figure is 1.02 ± 0.05.

For the origin of these results see the supplement of paper PMC4723716.
